The structures appear in SMILES notation. Screen size: about 48,000 compounds; about 550 (1.1%) were called active. Inconclusive results (about 4%) are left out. No stated cut-off is given here; in the data, active means potency below about 15 µM; inconclusive means mostly about 16 µM to 33 µM; inactive means weaker than that. The list shows a part of the results.
Potency means the concentration at half of the fitted maximal effect.

This assay addresses Lysosomal acid glucosylceramidase (Homo sapiens) (UniProt P04062). Nature of the assay: Glucocerebrosidase.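 Further: the screen sought inhibitors.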 The settings on record: purified enzyme, resorufin glucoside fluorescence (screen aimed at inhibitors), 20 min. The method, boiled down: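 Wild-type enzyme at 0.2 nM final in 50mM citric acid/KH2PO4, 10mM sodium taurocholate, 0.01% tween-20, pH 5.9, with resorufin beta-D-glucopyranoside at 30 uM final. Compounds titrated, 20 min at RT, red fluorescence read; AC50 from titration.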
Sequence of UniProt P04062 (P04062 whole entry, looked up): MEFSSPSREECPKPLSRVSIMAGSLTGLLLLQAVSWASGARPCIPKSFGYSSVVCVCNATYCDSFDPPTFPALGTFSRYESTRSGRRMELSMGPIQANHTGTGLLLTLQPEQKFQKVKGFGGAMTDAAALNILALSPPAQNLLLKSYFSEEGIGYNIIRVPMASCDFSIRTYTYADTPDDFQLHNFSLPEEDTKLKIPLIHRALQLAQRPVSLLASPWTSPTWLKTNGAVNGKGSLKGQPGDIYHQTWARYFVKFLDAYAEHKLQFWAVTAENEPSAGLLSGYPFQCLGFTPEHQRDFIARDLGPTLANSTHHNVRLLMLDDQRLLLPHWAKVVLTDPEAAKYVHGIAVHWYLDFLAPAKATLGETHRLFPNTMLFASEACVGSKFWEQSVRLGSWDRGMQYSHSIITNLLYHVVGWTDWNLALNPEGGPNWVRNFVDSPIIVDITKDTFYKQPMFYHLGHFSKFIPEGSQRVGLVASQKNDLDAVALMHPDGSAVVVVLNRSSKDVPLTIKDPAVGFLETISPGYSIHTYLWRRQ
Regarding `Cc1cccc(N=C2NC(=O)CS2)c1C`, the Potency is inactive: > 76.9 µM.

With `Cc1ccc(S(=O)(=O)NCCC(=O)N2CCN(Cc3ccccc3)CC2)cc1`, the Potency was inactive: > 76.9 µM.

On to `CN(CCc1ccccn1)S(=O)(=O)c1ccc2c3c(cccc13)C(=O)N2`, for which the Potency is inactive: > 76.9 µM.

As for `COC(=O)C1=C(C)Nc2ncnn2C1c1ccccn1` (stereo not given), the Potency was inactive: > 76.9 µM.

With `O=C(O)CCCn1c(=O)[nH]c2ccccc2c1=O`, the Potency was inactive: > 76.9 µM.

As for `O=c1[nH]c(Cc2ccccc2)nc2c1oc1ccccc12`, the Potency was inactive: > 76.9 µM.

On to `CCNC(=O)CC1C(=O)N(c2ccc(F)cc2)C(=O)N1Cc1ccc(OC)cc1` (stereo not given), for which the Potency was inactive: > 76.9 µM.

On to `C=CCOc1c(Br)cc(CNn2nnnc2N)cc1OC`, for which the Potency is inactive: > 76.9 µM.

`Cc1cc2cc(CN(Cc3ccc4c(c3)OCO4)C(=O)c3cnccn3)c3nnnn3c2cc1C`: the Potency was inactive: > 76.9 µM.

For the compound `Cc1cc(C)nc(NC(=O)NS(=O)(=O)Nc2ccc(Br)cn2)n1`, the Potency is inactive: > 76.9 µM.

On to `O=C(CSc1nnc(Cc2ccccc2)o1)N1CCOCC1`, for which the Potency was inactive: > 76.9 µM.

For the compound `O=C(COc1ccccc1)n1nc(-c2ccc(Cl)cc2)nc1NCc1ccco1`, the Potency is inactive: > 76.9 µM.

In the case of `CC1Cc2ccccc2N1S(=O)(=O)c1cnc[nH]1` (stereo not given), the Potency is inactive: > 76.9 µM.

In the case of `CC(=O)c1cnc(Nc2nc(C)c3cc(C)ccc3n2)nc1C`, the Potency is inactive: > 76.9 µM.

As for `CCCC(c1nnnn1C1CCCCC1)N1CCN(C2CCCC2)CC1` (stereo not given), the Potency is inactive: > 76.9 µM.

For the compound `COC(=O)c1ccccc1N=C(SC)N(C)C`, the Potency is inactive: > 76.9 µM.

On to `CCC(C)NC(=O)C1CCCN(C(=O)Nc2ccc(F)cc2)C1` (stereo not given), for which the Potency is inactive: > 76.9 µM.

In the case of `O=C(O)c1cccc(Cn2cc(Br)cn2)c1`, the Potency was inactive: > 76.9 µM.

Consider `CCc1ccccc1NC(=O)Cn1nnc(-c2cccs2)n1`, for which the Potency was inactive: > 76.9 µM.

On to `C=CCn1c(SCC(=O)Nc2ccc(C(=O)OCC)cc2)nnc1-c1sc(N)nc1C`, for which the Potency is inactive: > 76.9 µM.

As to `Cc1ccc(-n2ncc3c(=O)n(CC(=O)NC4CCCCC4)cnc32)cc1C`, the Potency is inactive: > 76.9 µM.

As for `COc1cc(Cl)cc(C2NC(=O)NC(C)=C2C(=O)NCc2ccccc2)c1O` (stereo not given), the Potency was inactive: > 76.9 µM.

For `Cn1c(=O)c2c(nc(N3CCN(c4ccccc4)CC3)n2CCCc2ccccc2)n(C)c1=O`, the Potency was inactive: > 76.9 µM.

Consider `Cc1ccc(NC(=O)CNS(=O)(=O)c2cccs2)cc1F`, for which the Potency is inactive: > 76.9 µM.

For the compound `COC(=O)c1ccccc1NC(=O)NCc1ccco1`, the Potency is inactive: > 76.9 µM.

For `COc1cc2[nH]c(=S)n(CCN3CCOCC3)c(=O)c2cc1OC`, the Potency was inactive: > 76.9 µM.

In the case of `Cc1ccc(S(=O)(=O)N2CCCC2C(=O)NCc2ccco2)cc1` (stereo not given), the Potency was inactive: > 76.9 µM.

As to `O=C(Cn1c(=O)oc2cc(S(=O)(=O)N3CCCC3)ccc21)Nc1cccc(C(F)(F)F)c1`, the Potency is inactive: > 76.9 µM.

Regarding `CC(=O)c1cccc(NC(=O)c2ccco2)c1`, the Potency was inactive: > 76.9 µM.

For `COC(=O)c1ccccc1NC(=O)c1cc2ncc(Br)cn2n1`, the Potency was inactive: > 76.9 µM.

`COC(=O)c1ccc(C(=O)OC)c(NC(=O)Nc2ccc3c(c2)OCO3)c1`: the Potency is inactive: > 76.9 µM.

`C=C(C)CSc1nnc(-c2cc(OC)c(OC)c(OC)c2)n1N`: the Potency was inactive: > 76.9 µM.

For `Cn1cccc1Cc1nnc(SCC(=O)Nc2nc3ccccc3s2)n1CCc1ccccc1`, the Potency is inactive: > 76.9 µM.

Turning to `COc1cc2c(cc1OC)C(COc1ccc(F)cc1)N(C(=O)c1ccco1)CC2` (stereo not given), the Potency was inactive: > 76.9 µM.

Consider `CCS(=O)(=O)Nc1c(C(=O)OC)[nH]c2ccccc12`, for which the Potency was inactive: > 76.9 µM.

Turning to `CCOC(=O)CNC(=O)C1c2cc(OC)c(OC)cc2C(=O)N(C)C1c1ccccc1F` (stereo not given), the Potency was inactive: > 76.9 µM.

Regarding `Cc1ccccc1NS(=O)(=O)c1ccc(OCC(=O)N2CCCC2)cc1`, the Potency was inactive: > 76.9 µM.

As to `COC(=O)c1ccccc1NS(=O)(=O)c1ccc2c3c(cccc13)C(=O)N2`, the Potency was inactive: > 76.9 µM.

`COC(=O)c1c(NC(=O)Cc2cccs2)sc(C(=O)N2CCCCC2)c1C`: the Potency is inactive: > 76.9 µM.

As for `Cc1c(C(=O)NCc2ccccc2)oc2ccc(S(=O)(=O)N3CCC4(CC3)OCCO4)cc12`, the Potency was inactive: > 76.9 µM.

Regarding `COc1ccc(NC(=O)N2c3ccccc3CC2C)cc1OC` (stereo not given), the Potency is inactive: > 76.9 µM.

`O=C(CCSCCc1ccccn1)Nc1ccccn1`: the Potency is inactive: > 76.9 µM.

Turning to `COc1ccc(C2C(C(=O)NCCN(C)C)c3cc(OC)c(OC)cc3C(=O)N2C)cc1OC` (stereo not given), the Potency is inactive: > 76.9 µM.

Consider `COC(=O)c1cc(-c2ccc(Br)cc2)n[nH]1`, for which the Potency is inactive: > 76.9 µM.

Take `Nc1cc(C(=O)OCC(=O)N2CCCC2)ccc1Cl`: the Potency is inactive: > 76.9 µM.

`CCOC(=O)C1=C(C)NC(C)=C(C(=O)OCC)C1C(=O)OCC(=O)N1CCCCC1CC` (stereo not given): the Potency was inactive: > 76.9 µM.

For `Cc1nn(-c2ccccc2)c(Cl)c1C(=O)Nc1c(C)n(C)n(-c2ccccc2)c1=O`, the Potency was inactive: > 76.9 µM.

For the compound `O=C(CSc1oc(-c2ccccc2)nc1S(=O)(=O)c1ccc(F)cc1)NCC1CCCO1` (stereo not given), the Potency was inactive: > 76.9 µM.

Regarding `Cn1c(Cn2c(=O)sc3ccccc32)nnc1SCc1ccccn1`, the Potency was inactive: > 76.9 µM.

In the case of `CCc1nc(SCC(=O)Nc2c(C)n(C)n(-c3ccccc3)c2=O)n[nH]1`, the Potency is inactive: > 76.9 µM.

For the compound `O=C(c1cccnc1NCc1ccc(F)cc1)N1CCOCC1`, the Potency was inactive: > 76.9 µM.

For `COc1ccc(NS(=O)(=O)c2cccc(-c3nnc4n3CCCCC4)c2)cc1`, the Potency was inactive: > 76.9 µM.

`Cc1cc(C(=O)Nc2ccc(S(=O)(=O)Nc3onc(C)c3C)cc2)c(C)o1`: the Potency was inactive: > 76.9 µM.

As for `CC(C)=CC(=O)Nc1ccc2c(c1)OCO2`, the Potency is inactive: > 76.9 µM.

Turning to `CCOC(=O)c1c(C)c(C(=O)Nc2ccc3c(c2)OCCO3)c(C)n1C`, the Potency is inactive: > 76.9 µM.

As to `CCCCS(=O)(=O)c1sc2nc(C)cc(C)c2c1N`, the Potency is inactive: > 76.9 µM.

Turning to `CCOc1ccc(C(CC(=O)O)NC(=O)c2ccco2)cc1OC` (stereo not given), the Potency was inactive: > 76.9 µM.

For `Cc1cccc(N2CC34C=CC(O3)C(C(=O)O)C4C2=O)c1` (stereo not given), the Potency was inactive: > 76.9 µM.

`Cc1ccc(S(=O)(=O)N(C)c2ccc(C(=O)O)cc2)cc1`: the Potency was inactive: > 76.9 µM.

Consider `Cc1ccc(S(=O)(=O)NCCC(=O)NCCN2CCCCCC2)cc1`, for which the Potency is inactive: > 76.9 µM.

Turning to `CCOc1cc(C2C(C(=O)c3ccc(C)cc3)=C(C(=O)OC)Nc3nnnn32)ccc1O` (stereo not given), the Potency is inactive: > 76.9 µM.

On to `CCn1c(SCC(=O)N2CCCc3ccccc32)nnc1-c1c[nH]c2ccccc12`, for which the Potency is inactive: > 76.9 µM.

Take `CCn1c(CC(=O)Nc2ccc(C)cc2)nnc1SCC(=O)NCc1ccccc1`: the Potency is inactive: > 76.9 µM.

As for `CN(C(=O)c1ccccn1)c1nnc(-c2ccncc2)s1`, the Potency is inactive: > 76.9 µM.

As to `CCn1c(SCCOc2ccc(Cl)cc2)nnc1-c1cccs1`, the Potency is inactive: > 76.9 µM.

Turning to `COC(=O)c1ccc(NC(=O)CN2CCN(c3cccc(Cl)c3)CC2)cc1`, the Potency is inactive: > 76.9 µM.

Regarding `O=C(CCCN1C(=O)CCC1=O)Nc1ccc2c(c1)OCO2`, the Potency was inactive: > 76.9 µM.

For `O=C1c2ccccc2C(=O)N1CCSc1nnc(-c2ccco2)n1Cc1ccccc1`, the Potency is inactive: > 76.9 µM.

With `CCOC(=O)NC(CC(=O)O)c1ccc(OC)cc1` (stereo not given), the Potency is inactive: > 76.9 µM.

For `CCCOc1ccc(N2CC(C(=O)NC(C)C)CC2=O)cc1` (stereo not given), the Potency is inactive: > 76.9 µM.

As for `CC(=O)C1=C(O)C(=O)N(CCN2CCOCC2)C1c1ccc(N(C)C)cc1` (stereo not given), the Potency was inactive: > 76.9 µM.

In the case of `COc1ccc(NC(=O)CSc2nccc(C)n2)cc1`, the Potency is inactive: > 76.9 µM.

For `Cc1cc(C)c2[nH]c(=O)c(CN(CC3CCCO3)C(=O)c3cnccn3)cc2c1` (stereo not given), the Potency is inactive: > 76.9 µM.

With `O=C(Nc1ccn(Cc2ccc(F)cc2)n1)c1ccncc1`, the Potency was inactive: > 76.9 µM.

Turning to `Cc1ccc(S(=O)(=O)N(C)CC(=O)NC2CC(C)(C)NC(C)(C)C2)cc1`, the Potency is inactive: > 76.9 µM.

Take `Cc1cnc(C(=O)OCC(=O)NC2CCCC(C)C2C)cn1` (stereo not given): the Potency was inactive: > 76.9 µM.

Turning to `CCOC(=O)C1CCN(C(=O)CSc2ccccc2)CC1`, the Potency was inactive: > 76.9 µM.

`O=C(CCN1C(=O)c2ccccc2C1=O)NCCC1=CCCCC1`: the Potency was inactive: > 76.9 µM.

Consider `Cc1oc2c(c1C(=O)NCc1cc(C(=O)O)co1)CCCC2`, for which the Potency is inactive: > 76.9 µM.

Regarding `N[C@@]12CCc3nonc3[C@]1(O)CC(c1ccccc1)=[N+]2[O-]`, the Potency is inactive: > 76.9 µM.

As for `Cc1c(C)n(C(=O)CN2CCN(c3ccccn3)CC2)c2ccccc12`, the Potency result was “inactive”.

Turning to `Cc1cc(NS(=O)(=O)c2ccc(NC(=O)C(C)Oc3ccc4c(C)cc(=O)oc4c3)cc2)no1` (stereo not given), the Potency is inactive: > 76.9 µM.

For `Cc1cc2oc(=O)cc(CN3CCC(C)CC3)c2c(C)c1Cl`, the Potency was inactive: > 76.9 µM.

For the compound `COc1cc(OC)cc(C(=O)Nc2ncc3c(n2)CC(C)(C)CC3=O)c1`, the Potency is inactive: > 76.9 µM.

Consider `NC1=NC2(CCCCC2)n2c(nc3ccccc32)N1`, for which the Potency result was “inactive”.

Consider `CCC(c1nnnn1C(C)(C)CC)N(CCCO)Cc1cc2cc(C)cc(C)c2[nH]c1=O` (stereo not given), for which the Potency was inactive: > 76.9 µM.

For the compound `O=C(O)CCSc1nnc(-c2ccc3c(c2)OCO3)o1`, the Potency was inactive: > 76.9 µM.

For `Cc1oc2nc(SCC(=O)NC3CCCCC3)nc(N)c2c1C`, the Potency was inactive: > 76.9 µM.

As for `Cc1sc(NC(=O)COc2cccc(-n3cnnn3)c2)c(C#N)c1C`, the Potency is inactive: > 76.9 µM.

Consider `CC1(C)OC(C(N)=O)C(C(N)=O)O1` (stereo not given), for which the Potency was inactive: > 76.9 µM.
